Assay results from publication PMC5892938.
The list shows a part of the results. Construct or isoform of the protein are uncertain.

These sequences were tested against GST-SBP-ILF3 (Homo sapiens) (UniProt Q12906) (assay: targeted RNA Bind-n-Seq). Settings: RBNS binding buffer: 25 mM Tris pH 7.5, 150 mM KCl, 3 mM MgCl2, 0.1% Tween, 0.5 mg/mL BSA, 1 mM DTT; 27 nM protein, 750 pM RNA pool; temperature not stated; high values mean tight binding; sequences stand for … in GGGUAAAAGCGAGGUGAA…CGGGACAAGUAUUAUGGG.

Q: Which binding signal (log2 fold change) does the source give for “UUUUUUUUUUGAGAUGGGACCCAUCUCCAG [tttttgagapaired]” here?
A: 0.311

Q: How did the binding signal (log2 fold change) turn out when “UUUUUUUUUUGAGAGGGGUCCCCUCUCCUA [tttttgagapaired]” was run?
A: 0.955

Q: “GUGUGUUGUGUUGGAUUCUAACACAGCGCA [gtspaired]” was tested. Which binding signal (log2 fold change) did it give?
A: -0.631

Q: With “UUUUUUUUUUGAGAUCGAGACGAUCUCCUA [tttttgagapaired]” as the sequence, how does the binding signal (log2 fold change) read?
A: 0.0599

Q: Which binding signal (log2 fold change) does the source give for “GUGUGGUGUGUUGGCUCCUAACACAUCGCA [gtspaired]” here?
A: -0.517

Q: “UUUUUUUUUUGAGAGCGUAGCGCUCUUCUA [tttttgagapaired]” was tested. Which binding signal (log2 fold change) did it give?
A: 0.271

Q: Which binding signal (log2 fold change) does the source give for “GGUGUGUGUGUUGGCACCUAACACACGCGC [gtspaired]” here?
A: -0.34

Q: How did the binding signal (log2 fold change) turn out when “UUUUUUUUUUGAGACCGCAACGGUUUCCUA [tttttgagapaired]” was run?
A: 0.262

Q: Which binding signal (log2 fold change) does the source give for “UUUUUUUUUUGAGAUCGAACCGAUCUCCAG [tttttgagapaired]” here?
A: 0.0525

Q: Which binding signal (log2 fold change) does the source give for “GGUUGGUGUGUUGGCACCUAACACAUCGAC [gtspaired]” here?
A: -0.541

Q: How did the binding signal (log2 fold change) turn out when “UUUUUUUUUUGAGAGGGUGACCCUCUCCUA [tttttgagapaired]” was run?
A: 0.213

Q: Which binding signal (log2 fold change) does the source give for “UUUUUUUUUUGAGAUCGACACGAUCUUCUG [tttttgagapaired]” here?
A: 0.0941

Q: With “UUUUUUUUUUGAGACGGAAGCUGUCUCCUG [tttttgagapaired]” as the sequence, how does the binding signal (log2 fold change) read?
A: 0.792

Q: Which binding signal (log2 fold change) does the source give for “UUUUUUUUUUGAGAGCGAUUCGUUCUCCAG [tttttgagapaired]” here?
A: -0.141

Q: With “GUGGUGUGUGUUGGCACCUAACACACGCCG [gtspaired]” as the sequence, how does the binding signal (log2 fold change) read?
A: -0.253

Q: For “UUUUUUUUUUGAGACCGUGGCGGUCUCCUA [tttttgagapaired]”, which binding signal (log2 fold change) is on record?
A: 0.633

Q: How did the binding signal (log2 fold change) turn out when “UUUUUUUUUUGAGACUGGCACAGUCUCCAG [tttttgagapaired]” was run?
A: 0.67

Q: “UUUUUUUUUUGAGAGGGUGUCCUUCUCCAG [tttttgagapaired]” was tested. Which binding signal (log2 fold change) did it give?
A: 0.707

Q: With “UUUUUUUUUUGAGAUGGAUGCCAUCUCCGG [tttttgagapaired]” as the sequence, how does the binding signal (log2 fold change) read?
A: 0.211

Q: “UUUUUUUUUUGAGAGGGCUCCCUUCUCCAG [tttttgagapaired]” was tested. Which binding signal (log2 fold change) did it give?
A: 0.453

Q: With “GGUGUGUGUGUUGGCGUCUAACACAUAUAC [gtspaired]” as the sequence, how does the binding signal (log2 fold change) read?
A: -0.7

Q: With “UUUUUUUUUUGAGAUGGGACCCAUCUUCUA [tttttgagapaired]” as the sequence, how does the binding signal (log2 fold change) read?
A: 0.304

Q: With “UUUUUUUUUUGAGAUGGGGACCAUCUUCUG [tttttgagapaired]” as the sequence, how does the binding signal (log2 fold change) read?
A: 0.472

Q: With “UUUUUUUUUUGAGAUGGUCUCCGUCUCCUA [tttttgagapaired]” as the sequence, how does the binding signal (log2 fold change) read?
A: 0.475

Q: “UUUUUUUUUUGAGAUCGAUUCGAUCUCCUA [tttttgagapaired]” was tested. Which binding signal (log2 fold change) did it give?
A: -0.54

Q: Which binding signal (log2 fold change) does the source give for “UUUUUUUUUUGAGAUGGGAACCAUCUCCGG [tttttgagapaired]” here?
A: -0.0102

Q: How did the binding signal (log2 fold change) turn out when “GUGUGUGGUGUUGGUCUCUAACACCACGCA [gtspaired]” was run?
A: -0.476

Q: With “UUUUUUUUUUGAGACGGUGUCCGUCUCCUA [tttttgagapaired]” as the sequence, how does the binding signal (log2 fold change) read?
A: 0.748

Q: Which binding signal (log2 fold change) does the source give for “UUUUUUUUUUGAGAGGGGGCCCCUCUCCUG [tttttgagapaired]” here?
A: 1.3

Q: With “UUUUUUUUUUGAGACGGGCACUGUCUCCUA [tttttgagapaired]” as the sequence, how does the binding signal (log2 fold change) read?
A: 0.839

Q: Which binding signal (log2 fold change) does the source give for “UUUUUUUUUUGAGACUGCGUCAGUUUCCAG [tttttgagapaired]” here?
A: 0.765

Q: “UUUUUUUUUUGAGACGGUAUCCGUCUCCUA [tttttgagapaired]” was tested. Which binding signal (log2 fold change) did it give?
A: 0.0931

Q: With “UUUUUUUUUUGAGAGUGGGACAUUCUUCUA [tttttgagapaired]” as the sequence, how does the binding signal (log2 fold change) read?
A: 0.364

Q: For “GUGUGGUGUGUUGGUACCUAACACACCGCG [gtspaired]”, which binding signal (log2 fold change) is on record?
A: -0.838

Q: For “GUGUGGUGUGUUGGAGUCUAACACACUACG [gtspaired]”, which binding signal (log2 fold change) is on record?
A: -0.672

Q: For “GUGUGGUGUGUUGGCGUCUAACACACUAUA [gtspaired]”, which binding signal (log2 fold change) is on record?
A: -1.03

Q: With “UUUUUUUUUUGAGAGGGAGACCCUCUCCUA [tttttgagapaired]” as the sequence, how does the binding signal (log2 fold change) read?
A: 0.322

Q: How did the binding signal (log2 fold change) turn out when “UUUUUUUUUUGAGAGUGAGGCACUCUCCGG [tttttgagapaired]” was run?
A: 0.131

Q: “UUUUUUUUUUGAGAGCGGGGCGCUCUUCUG [tttttgagapaired]” was tested. Which binding signal (log2 fold change) did it give?
A: 0.504

Q: Which binding signal (log2 fold change) does the source give for “UUUUUUUUUUGAGAGCGAAUCGCUCUCCGG [tttttgagapaired]” here?
A: 0.18

Q: “UUUUUUUUUUGAGAGGGUACCCCUCUCCGG [tttttgagapaired]” was tested. Which binding signal (log2 fold change) did it give?
A: 0.175

Q: “GGUGGUUGUGUUGGAUUCUAACACAAUCGC [gtspaired]” was tested. Which binding signal (log2 fold change) did it give?
A: -0.621

Q: With “GUGGUUGGUGUUGGACCCUAACACCAAUCA [gtspaired]” as the sequence, how does the binding signal (log2 fold change) read?
A: -0.44

Q: Which binding signal (log2 fold change) does the source give for “UUUUUUUUUUGAGACGGCGUCCGUCUCCUA [tttttgagapaired]” here?
A: 0.811

Q: Which binding signal (log2 fold change) does the source give for “UUUUUUUUUUGAGACCGAAUCGGUCUCCUA [tttttgagapaired]” here?
A: 0.269

Q: With “GUUGUGUGUGUUGGCACCUAACACACGCAG [gtspaired]” as the sequence, how does the binding signal (log2 fold change) read?
A: -0.382

Q: Which binding signal (log2 fold change) does the source give for “UUUUUUUUUUGAGAGGGUGCCCCUCUUCUA [tttttgagapaired]” here?
A: 0.457

Q: For “GUGGUGUGUGUUGGCACCUAACACACAUCA [gtspaired]”, which binding signal (log2 fold change) is on record?
A: -0.36

Q: For “GUGGUGUGUGUUGGCAUCUAACACACGCCG [gtspaired]”, which binding signal (log2 fold change) is on record?
A: -0.655

Q: How did the binding signal (log2 fold change) turn out when “UUUUUUUUUUGAGACGGCAGCCGUCUUCUG [tttttgagapaired]” was run?
A: 0.678

Q: With “UUUUUUUUUUGAGAUGGGGACCAUUUCCGG [tttttgagapaired]” as the sequence, how does the binding signal (log2 fold change) read?
A: 0.808

Q: “GGUGUGUGUGUUGGAGCCUAACACACGCGC [gtspaired]” was tested. Which binding signal (log2 fold change) did it give?
A: -0.329

Q: With “UUUUUUUUUUGAGAGGGUGUCCUUCUCCUA [tttttgagapaired]” as the sequence, how does the binding signal (log2 fold change) read?
A: 0.627

Q: For “UUUUUUUUUUGAGACGGUAACCGUUUCCUA [tttttgagapaired]”, which binding signal (log2 fold change) is on record?
A: 0.387

Q: Which binding signal (log2 fold change) does the source give for “GGUUGGUGUGUUGGCUUCUAACACAUCGAC [gtspaired]” here?
A: -0.749

Q: Which binding signal (log2 fold change) does the source give for “UUUUUUUUUUGAGAACGGGACGUUCUUCUA [tttttgagapaired]” here?
A: 0.242

Q: With “GUGGUUGGUGUUGGUACCUAACACCGACUA [gtspaired]” as the sequence, how does the binding signal (log2 fold change) read?
A: -0.45

Q: For “GUGUGGUGUGUUGGCACCUAACACACUACG [gtspaired]”, which binding signal (log2 fold change) is on record?
A: -0.751

Q: For “UUUUUUUUUUGAGAUCGACACGAUCUUCUA [tttttgagapaired]”, which binding signal (log2 fold change) is on record?
A: -0.0491

Q: With “UUUUUUUUUUGAGAUGGAUACCAUCUCCUA [tttttgagapaired]” as the sequence, how does the binding signal (log2 fold change) read?
A: 0.0893

Q: For “GUGUGUUGUGUUGGCCCCUAACACAGCGCA [gtspaired]”, which binding signal (log2 fold change) is on record?
A: -0.276

Q: How did the binding signal (log2 fold change) turn out when “GUUGGUGGUGUUGGAGCCUAACACCGCCAA [gtspaired]” was run?
A: -0.332

Q: Which binding signal (log2 fold change) does the source give for “UUUUUUUUUUGAGAGCGAACCGUUCUCCUG [tttttgagapaired]” here?
A: 0.344

Q: Which binding signal (log2 fold change) does the source give for “GGUUGUGGUGUUGGCCUCUAACACCAUAAC [gtspaired]” here?
A: -0.151

Q: With “GUUGUGUGUGUUGGCUCCUAACACACGCGA [gtspaired]” as the sequence, how does the binding signal (log2 fold change) read?
A: -0.802
